The list shows a part of the results. These are further read-outs of the screen, such as a control signal, another cell line or another target. No call is given for them.
Assays:
Experiment in all cases: Primary Screen for Target Class Profiling of Small Molecule Inhibitors of Methyltransferases
[1] = biological target: Glycine N-methyltransferase (Homo sapiens) (UniProt Q14749); conditions: purified enzyme, MTase-Glo SAH luminescence; measured here: GNMT inhibition; at 40 µM; stronger effect = lower value
Summary of the method: (§1)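 Each enzyme was assayed with SAM and its substrate. SAH formation detected by MTase-Glo luminescence; single-point 40 uM screen[…].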

[2] = biological target: Guanidinoacetate N-methyltransferase (Homo sapiens) (UniProt Q14353); conditions: purified enzyme, MTase-Glo SAH luminescence; measured here: GAMT inhibition; at 40 µM; stronger effect = lower value
Summary of the method: as §1

[3] = biological target: Histamine N-methyltransferase (Homo sapiens) (UniProt P50135); conditions: purified enzyme, MTase-Glo SAH luminescence; measured here: HNMT inhibition; at 40 µM; stronger effect = lower value
Summary of the method: as §1

[4] = biological target: Nicotinamide N-methyltransferase (Homo sapiens) (UniProt P40261); conditions: purified enzyme, MTase-Glo SAH luminescence; measured here: NNMT inhibition; at 40 µM; stronger effect = lower value
Summary of the method: as §1

[5] = biological target: Phenylethanolamine N-methyltransferase (Homo sapiens) (UniProt P11086); conditions: purified enzyme, MTase-Glo SAH luminescence; measured here: PNMT inhibition; at 40 µM; stronger effect = lower value
Summary of the method: as §1
% is set by controls: 0 for no effect and ±100 for the full control effect.

SMILES	activity change, negative = inhibition [1] [%]	activity change, negative = inhibition [2] [%]	activity change, negative = inhibition [3] [%]	activity change, negative = inhibition [4] [%]	activity change, negative = inhibition [5] [%]
NC(=O)c1ccccc1OC[C@@H]1CCCN2CCCC[C@H]12	-1.42	-0.298	-16.2	2.02	-1.5
COc1ccc(-c2cc3n(n2)CC(C)(C(=O)NCc2ccccc2OC)N(c2ccc(F)cc2F)C3=O)cc1 (stereo not drawn)	9.32	0.988	7.68	7.67	3.63
NC(N)=NCc1cccc(I)c1	11.5	10.1	5.87	-8.47	-7.15
Cc1ccc(-c2n[nH]n3c2nc(=O)c2ccc(C(=O)N4CCN(c5ccc(F)cc5)CC4)cc23)cc1	-16.3	1.19	0.497	-4.07	0.021
COc1cc(OC)c(NC(=O)c2ccc(Cc3cc4c(cc3C)C(C)(C)CCC4(C)C)o2)c(OC)c1	-1.63	-3.55	7.48	-48	-5.58
CCOC(=O)c1cc2n(n1)CC(C)(C(=O)NC1CCCCCC1)N(Cc1ccccc1F)C2=O (stereo not drawn)	3.08	3.15	3.54	5.99	2.68
CCCCCCCOc1cc2c(cc1/C(C)=C/c1ccc(C(=O)O)cc1)C(C)(C)CCS2(=O)=O	-43	-19.4	-34.6	-85.7	-5.78
O=C1NCCSc2c1sc1ccc(O)cc21	–	-9.96	–	-34.2	-7.86
O=C(CCc1nnc2n(Cc3ccc(Cl)cc3)c(=O)c3ccccc3n12)NCCN1CCCC1	-12.2	0	-63.3	2.43	-0.976
CN1CC(=O)N(C2CCNC2)Cc2c(NCCc3cccc(F)c3)ncnc21 (stereo not drawn)	-2.44	-0.837	-13.1	-4.57	-5.03
O=C(NCc1ccco1)C(NS(=O)(=O)c1cccc2nsnc12)c1ccccc1 (stereo not drawn)	2.41	0	10	15.3	4.04
C/C=C/c1ccc(O[C@@H]2O[C@H](CO)[C@@H](O)[C@H](O)[C@H]2O)c(OC)c1	-6.32	-24.8	-0.119	-25.3	-11.6
COc1cccc(CNC(=O)C2CN(c3ccc(F)cc3)C(=O)N2)c1 (stereo not drawn)	-5.22	-9.85	-6.67	-13.5	-12.2
CCC1CCCCN1CCCN1C(=O)c2cc3occc3n2CC1(C)C(=O)NC1CCCCCCC1 (stereo not drawn)	1.62	4.5	-9.79	-1.93	-2.97
C=CC(=O)c1ccc2ccccc2c1	–	-36	–	-37.8	-5.36
O=C(O)C[C@@H]1CCN(C(=O)c2ccco2)C[C@@H]1CCN1CCOCC1	-2.28	-3.49	0.033	-6.81	-20
CCCn1c(=O)c2ccc(C(=O)NC(C)C)cc2n2c(SCC(=O)Nc3ccc(C)c(F)c3)nnc12	-3.89	-0.258	-6.03	-3.74	-4.43
CNC(=O)Cn1nc(C(=O)N2CCC3(CC2)[C@H](O)C[C@@H]3O)cc1C	0.633	-0.351	1.41	0.828	-0.102
Cc1cc(N2CCCCC2)nc2ccccc12	3.89	5.3	2.15	-5.89	2.58
CCCC1c2ccc(C)n2CCN1C(=O)NCc1ccccc1 (stereo not drawn)	-1.1	4.51	-7.99	4.52	-4.28

SMILES	activity change, negative = inhibition [1] [%]	activity change, negative = inhibition [2] [%]	activity change, negative = inhibition [3] [%]	activity change, negative = inhibition [4] [%]	activity change, negative = inhibition [5] [%]
C[C@@H](c1ccc2nccn2c1)n1nnc2ncc(-c3cnn(C)c3)nc21	-13.7	-15.3	-14	-25.8	-22.1
NS(=O)(=O)c1cccc2c1c([N+](=O)[O-])cc1nc(O)c(O)nc12	-14.1	6.7	0.481	-8.51	1.7
CN(C)CCN(Cc1ccc(-c2ccc(CNCCc3ccccc3)cc2)cc1)C(=O)CCC1CCCC1	-4.61	13	-47.6	-45.8	-0.809
CC(C)c1ccc(CN2CCCC3(CCN(S(C)(=O)=O)C3)C2=O)cc1 (stereo not drawn)	-7.82	-7.72	-2.34	-18	-7.78
Cc1cccc(N2CCN(C(=O)CCCc3nnc4n5nc(C)nc5c5ccccc5n34)CC2C)c1 (stereo not drawn)	-6.71	0.433	9.43	8.46	3.29
CC(C)n1c(=O)c2ccc(C(=O)NC3CCCCC3)cc2n2c(=O)n(Cc3ccc(F)cc3Cl)nc12	4.3	0	6	1.03	3.97
COC(=O)c1ncn2c1C(=O)N(c1ccc(OC)c(Cl)c1)C(C)(C(=O)NCc1ccccc1)C2 (stereo not drawn)	4.24	0	7.34	8.5	8
COc1cc([C@@H]2c3cc4c(cc3[C@H](O)C3COC(=O)[C@@H]32)OCO4)cc(OC)c1OC (stereo partly drawn)	-4.17	11.6	5.16	-2.39	12.3
CCCN1C(=O)c2c(C(=O)NCc3ccc(OC)cc3OC)ncn2CC1(C)C(=O)NCc1ccc(C)cc1 (stereo not drawn)	1.6	2.77	4.08	1.29	4.99
CC(C)(C)c1ccc(CN2CCN(C(c3ccccc3)c3ccc(Cl)cc3)CC2)cc1 (stereo not drawn)	-0.625	-34.9	5.49	-37.1	-4.18
CCCn1c(=O)c2ccc(C(=O)NC(C)CC)cc2n2c(SCC(=O)Nc3ccccc3C)nnc12 (stereo not drawn)	4.48	0	8.99	-0.575	4.57
O=C(c1ccoc1)N1CCC(Cc2nc(C3CC3)n[nH]2)C1 (stereo not drawn)	-1.69	2.28	2.4	-0.137	18.5
COc1ccc(C[C@H](N)C(=O)N[C@@H]2[C@H](O)[C@H](n3cnc4c(N(C)C)ncnc43)O[C@@H]2CO)cc1	6.1	–	7.66	–	–
C=C1C(=O)OC2C1CCC1(C)C(O)CCC(=C)C21 (stereo not drawn)	-5.27	2.08	10.9	-7.55	5.85
COc1ccc(C(=O)N2CCC3(CC2)OCC(C(=O)NC2CC2)N3C(=O)c2cccc(C)c2)cc1 (stereo not drawn)	-3.27	1.17	-0.491	-4.85	10.8
Cc1ccccc1CN1C(=O)c2nc3ccccc3n2CC1(C)C(=O)NC1CCCCCC1 (stereo not drawn)	6.26	4.42	8.03	12.1	2.86
CCN(C(=O)Cn1c(=O)oc2cc(S(=O)(=O)N3CCCC3)ccc21)c1cccc(C)c1	-4.04	0.712	3.8	1.7	-2.6
CCC(C)NC(=O)Cn1nc2n(Cc3ccccc3)c(=O)c3ccc(C(=O)NC(C)C)cc3n2c1=O (stereo not drawn)	-4.47	2.46	1	-6.32	-6.53
CC(O)(C#Cc1ccc2c(c1)N(c1nc(N)ncc1Cl)CC2)c1nccs1 (stereo not drawn)	-28	-6.57	-17.1	-48.3	-12.3
COc1ccc([C@H]2CNC(=O)C2)cc1OC1CCCC1	4.28	-1.02	1.86	-14.7	-3.99

SMILES	activity change, negative = inhibition [1] [%]	activity change, negative = inhibition [2] [%]	activity change, negative = inhibition [3] [%]	activity change, negative = inhibition [4] [%]	activity change, negative = inhibition [5] [%]
CC(C)OCCCn1c(=O)c2ccccc2n2c(=O)n(CC(=O)c3cccc(Cl)c3)nc12	-9.02	4.54	-0.9	-21.6	-3.58
CC1(C(=O)NC2CCCCC2)Cn2c(ccc2-c2ccco2)C(=O)N1Cc1ccccc1F (stereo not drawn)	-1.01	3.57	4.84	1.32	-0.491
COC(=O)c1ncn2c1C(=O)N(Cc1ccc(OC)cc1OC)C(C)(C(=O)NC1CCCCCC1)C2 (stereo not drawn)	2.51	2.84	3.35	-17.8	0.849
Cc1cc(C)cc(NC(=O)CN(C)S(=O)(=O)c2ccc3[nH]c4c(c3c2)CCCC4)c1	-5.15	3.8	-4.36	-2.14	0.266
N#Cc1ccc(N2N=C3c4ccc(C(=O)O)cc4CC[C@@H]3[C@@H]2C2CCCC2)cc1Cl	-49.6	-84.3	-9.52	-86.4	-54.6
C=C1CCC2(C(=O)OC3OC(CO)C(O)C(O)C3O)CCC3(C)C(=CCC4C5(C)CCC(OC6OC(CO)C(OC7OC(C)C(O)C(O)C7O)C(OC7OCC(O)C(O)C7O)C6O)C(C)(C)C5CCC43C)C2C1 (stereo not drawn)	3.16	17.2	8.22	5.76	6.61
COC(=O)c1ncn2c1C(=O)N(Cc1ccccc1Cl)C(C)(C(=O)NC1CCCCCC1)C2 (stereo not drawn)	4.55	0.988	5.67	5.79	0.12
Cc1cc2c(cc3n2CC(C)(C(=O)NC2CCCCCCC2)N(CCCc2ccccc2)C3=O)o1 (stereo not drawn)	-14.1	-1.87	-4.16	-11.5	-11.7
O=C(NC(Cc1c[nH]c2ccccc12)c1nc2ccccc2[nH]1)c1ccccc1 (stereo not drawn)	-25.5	4.38	1.59	2.76	-6.5
Cc1ccc(C(=O)Nc2noc3ccccc23)cc1	-29	-38.2	-25.8	-48.6	-37.6
COc1ccc(N2CCN(C(=O)COc3cccc(-c4nnc5n4CCCC5)c3)CC2)cc1	-11.6	-12.5	-7.4	-15.2	-12
Cc1ccc(CN2C(=O)c3cc4sccc4n3CC2(C)C(=O)NC2CCCCCC2)cc1 (stereo not drawn)	-0.594	5.2	-0.418	-5.41	-4.33
CCC(C)NC(=O)c1ccc2c(=O)n(CCC(C)C)c3nn(Cc4ccccc4C)c(=O)n3c2c1 (stereo not drawn)	4.9	0	4.94	6.39	5.18
O=C(CSc1nnc2n(CCc3ccccc3)c(=O)c3ccccc3n12)Nc1cc(F)ccc1F	4.28	7.53	7.46	3.66	3.92
CCOC(=O)c1cnn(-c2ccc(NC(=O)C(Cl)=C(Cl)Cl)cc2)c1C(F)(F)F	0.423	-17.5	9.3	-17.3	-2.62
CCOC(=O)c1cc2n(n1)CC(C)(C(=O)NCCCOC)N(c1ccc(C)cc1C)C2=O (stereo not drawn)	10.8	1.07	10.4	14	10.4
O=C(c1ccc(-c2ccc(O)cc2)cc1)N1CCOC2(CNCCOC2)C1 (stereo not drawn)	-6.33	-11	-5.56	-7.93	-12.3
CCCCN1C(=O)CSc2c(c3ccccc3n2C)C1C(=O)NCCC(C)C (stereo not drawn)	13.9	0	7.12	7.24	10.3
COCCCNC(=O)C(NC(=O)C1CC1)C1CCN(C(=O)c2ccc(C)cc2)CC1 (stereo not drawn)	-2.22	-2.63	1.95	-4.43	-4.96
CCN1C(=O)c2cc(-c3ccc(OC)cc3)nn2CC1(C)C(=O)NCc1ccccc1OC (stereo not drawn)	1.26	0	8.43	11.8	3.39

From PubChem BioAssay AID1745853 (National Center for Advancing Translational Sciences (NCATS), 2022)
